T1: PRYSPRY domain of human TRIM21 with N-terminal 6xHis tag (human)
T1 construct: Expressed in E. coli; also called hTRIM21; human TRIM21.PRYSPRY
T1 chain: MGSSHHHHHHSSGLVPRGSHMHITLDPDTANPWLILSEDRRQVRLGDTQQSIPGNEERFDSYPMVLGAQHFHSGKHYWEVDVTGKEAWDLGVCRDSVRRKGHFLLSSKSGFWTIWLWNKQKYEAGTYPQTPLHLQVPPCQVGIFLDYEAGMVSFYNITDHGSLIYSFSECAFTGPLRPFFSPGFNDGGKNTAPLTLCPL

T2: PRYSPRY domain of mouse TRIM21 with N-terminal 6xHis tag (mouse)
T2 construct: Expressed in E. coli; also called mTRIM21; mouse TRIM21.PRYSPRY
T2 chain: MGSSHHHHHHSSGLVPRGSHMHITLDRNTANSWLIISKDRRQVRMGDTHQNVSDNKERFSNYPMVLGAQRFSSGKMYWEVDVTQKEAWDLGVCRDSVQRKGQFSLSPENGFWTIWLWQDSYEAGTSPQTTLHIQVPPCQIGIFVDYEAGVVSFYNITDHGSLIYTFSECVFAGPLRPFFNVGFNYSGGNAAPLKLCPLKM

B1: MRAH-G1d/MRAL-KT0 N434M (antibody, human IgG1, kappa)
heavy: QVQLQESGPGLVRPSQTLSLTCTVSGYSITSDHAWSWVRQPPGRGLEWIGYISYSGITTYNPSLKSRVTMLRDTSKNQFSLRLSSVTAADTAVYYCARSLARTTAMDYWGQGSLVTVSS[human IgG1 constant region with N434M (EU numbers) omitted here]
light: DIQMTQSPSSLSASVGDRVTITCRASQDISSYLNWYQQKPGKAPKLLIYYTSRLHSGVPSRFSGSGSGTDFTFTISSLQPEDIATYYCQQGNTLPYTFGQGTKVEIKRTVAAPSVFIFPPSDEQLKSGTASVVCLLNNFYPREAKVQWKVDNALQSGNSQESVTEQDSKDSTYSLSSTLTLSKADYEKHKVYACEVTHQGLSSPVTKSFNRGEC
notes: copies: 2 + 2
B2: MRAH-G1d/MRAL-KT0 Q311S (antibody, human IgG1, kappa)
heavy: QVQLQESGPGLVRPSQTLSLTCTVSGYSITSDHAWSWVRQPPGRGLEWIGYISYSGITTYNPSLKSRVTMLRDTSKNQFSLRLSSVTAADTAVYYCARSLARTTAMDYWGQGSLVTVSS[human IgG1 constant region with Q311S (EU numbers) omitted here]
light: B1 light
notes: copies: 2 + 2
B3: MRAH-G1d/MRAL-KT0 Q311W (antibody, human IgG1, kappa)
heavy: QVQLQESGPGLVRPSQTLSLTCTVSGYSITSDHAWSWVRQPPGRGLEWIGYISYSGITTYNPSLKSRVTMLRDTSKNQFSLRLSSVTAADTAVYYCARSLARTTAMDYWGQGSLVTVSS[human IgG1 constant region with Q311W (EU numbers) omitted here]
light: B1 light
notes: copies: 2 + 2
B4: MRAH-G1d/MRAL-KT0 T437A (antibody, human IgG1, kappa)
heavy: QVQLQESGPGLVRPSQTLSLTCTVSGYSITSDHAWSWVRQPPGRGLEWIGYISYSGITTYNPSLKSRVTMLRDTSKNQFSLRLSSVTAADTAVYYCARSLARTTAMDYWGQGSLVTVSS[human IgG1 constant region with T437A (EU numbers) omitted here]
light: B1 light
notes: copies: 2 + 2
B5: MRAH-G1d/MRAL-KT0 Q311G (antibody, human IgG1, kappa)
heavy: QVQLQESGPGLVRPSQTLSLTCTVSGYSITSDHAWSWVRQPPGRGLEWIGYISYSGITTYNPSLKSRVTMLRDTSKNQFSLRLSSVTAADTAVYYCARSLARTTAMDYWGQGSLVTVSS[human IgG1 constant region with Q311G (EU numbers) omitted here]
light: B1 light
notes: copies: 2 + 2
B6: MRAH-G1d/MRAL-KT0 Q311P (antibody, human IgG1, kappa)
heavy: QVQLQESGPGLVRPSQTLSLTCTVSGYSITSDHAWSWVRQPPGRGLEWIGYISYSGITTYNPSLKSRVTMLRDTSKNQFSLRLSSVTAADTAVYYCARSLARTTAMDYWGQGSLVTVSS[human IgG1 constant region with Q311P (EU numbers) omitted here]
light: B1 light
notes: copies: 2 + 2
B7: MRAH-G1d/MRAL-KT0 N434T (antibody, human IgG1, kappa)
heavy: QVQLQESGPGLVRPSQTLSLTCTVSGYSITSDHAWSWVRQPPGRGLEWIGYISYSGITTYNPSLKSRVTMLRDTSKNQFSLRLSSVTAADTAVYYCARSLARTTAMDYWGQGSLVTVSS[human IgG1 constant region with N434T (EU numbers) omitted here]
light: B1 light
notes: copies: 2 + 2
B8: MRAH-G1d/MRAL-KT0 Q311V (antibody, human IgG1, kappa)
heavy: QVQLQESGPGLVRPSQTLSLTCTVSGYSITSDHAWSWVRQPPGRGLEWIGYISYSGITTYNPSLKSRVTMLRDTSKNQFSLRLSSVTAADTAVYYCARSLARTTAMDYWGQGSLVTVSS[human IgG1 constant region with Q311V (EU numbers) omitted here]
light: B1 light
notes: copies: 2 + 2
B9: MRAH-G1d/MRAL-KT0 Q311Y (antibody, human IgG1, kappa)
heavy: QVQLQESGPGLVRPSQTLSLTCTVSGYSITSDHAWSWVRQPPGRGLEWIGYISYSGITTYNPSLKSRVTMLRDTSKNQFSLRLSSVTAADTAVYYCARSLARTTAMDYWGQGSLVTVSS[human IgG1 constant region with Q311Y (EU numbers) omitted here]
light: B1 light
notes: copies: 2 + 2
B10: MRAH-G1d/MRAL-KT0 N434K (antibody, human IgG1, kappa)
heavy: QVQLQESGPGLVRPSQTLSLTCTVSGYSITSDHAWSWVRQPPGRGLEWIGYISYSGITTYNPSLKSRVTMLRDTSKNQFSLRLSSVTAADTAVYYCARSLARTTAMDYWGQGSLVTVSS[human IgG1 constant region with N434K (EU numbers) omitted here]
light: B1 light
notes: copies: 2 + 2
B11: MRAH-G1d/MRAL-KT0 Q311T (antibody, human IgG1, kappa)
heavy: QVQLQESGPGLVRPSQTLSLTCTVSGYSITSDHAWSWVRQPPGRGLEWIGYISYSGITTYNPSLKSRVTMLRDTSKNQFSLRLSSVTAADTAVYYCARSLARTTAMDYWGQGSLVTVSS[human IgG1 constant region with Q311T (EU numbers) omitted here]
light: B1 light
notes: copies: 2 + 2
B12: MRAH-G1d/MRAL-KT0 N434L (antibody, human IgG1, kappa)
heavy: QVQLQESGPGLVRPSQTLSLTCTVSGYSITSDHAWSWVRQPPGRGLEWIGYISYSGITTYNPSLKSRVTMLRDTSKNQFSLRLSSVTAADTAVYYCARSLARTTAMDYWGQGSLVTVSS[human IgG1 constant region with N434L (EU numbers) omitted here]
light: B1 light
notes: copies: 2 + 2

Key:
Test in all cases: SPR, Protein L capture
[1] = biological target: T1, PRYSPRY domain of human TRIM21 with …
[2] = biological target: T2, PRYSPRY domain of mouse TRIM21 with …
human FcRn = biological target: T3, human FcRn (human, UniProt P55899 partial chain; P61769 partial chain, limits assumed)
T3 construct: also called hFcRn

Chain of human FcRn (P55899 24-290 limits assumed, form in doubt, chain 1 of 2): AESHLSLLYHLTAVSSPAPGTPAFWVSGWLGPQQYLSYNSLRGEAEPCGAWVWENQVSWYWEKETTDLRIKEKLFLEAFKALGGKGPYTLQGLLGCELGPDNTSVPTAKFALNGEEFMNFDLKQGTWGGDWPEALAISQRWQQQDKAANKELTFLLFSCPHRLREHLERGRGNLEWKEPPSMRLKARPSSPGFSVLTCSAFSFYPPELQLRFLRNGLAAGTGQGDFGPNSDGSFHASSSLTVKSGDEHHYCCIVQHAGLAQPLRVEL
Chain of human FcRn (P61769 21-119 limits assumed, form in doubt, chain 2 of 2, further chain): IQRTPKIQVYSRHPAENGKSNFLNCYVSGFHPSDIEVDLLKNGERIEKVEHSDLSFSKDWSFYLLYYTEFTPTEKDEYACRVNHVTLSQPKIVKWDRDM

Binder	hTRIM21 binding level ratio (variant/control antibody) [1]	mTRIM21 binding level ratio (variant/control antibody) [2]	hFcRn binding level ratio (variant/control antibody) (human FcRn)
B1	0.824	0.771	0.27
B2	1.21	2.67	0.83
B3	1.16	2.79	0.4
B4	1.01	2.41	0.96
B5	1.05	3.06	0.35
B6	1.15	2.73	0.27
B7	0.03	-0.089	0.66
B8	0.989	2.62	0.14
B9	1.22	2.82	0.15
B10	-0.026	-0.234	0.15
B11	1.02	2.71	1.14
B12	1.22	2.18	0.12

Reference: US20210238308A1 (Chugai, published 2021)
